From the supplement of paper PMC4166925
± gives the standard deviation of the averaged measurements. In all, about 33,000 sequences were measured (“E-score (dimensionless, -0.5 to 0.5)”: median about -0.046, highest 2% from about 0.36 on). The list shows a part of the results.

Each sequence was assayed on T1, SpTbr T-box DNA-binding domain (GST fusion) (assay: PBM E-score of 8-mer (E-score (dimensionless, -0.5 to 0.5)); Tbr is Tbrain of the sea star Patiria miniata (Pm) or the sea urchin Strongylocentrotus purpuratus (Sp); higher = stronger binding preference; most listed sequences are background and not binding sites). Conditions: the construct has about 5 more residues each side.
T1 sequence: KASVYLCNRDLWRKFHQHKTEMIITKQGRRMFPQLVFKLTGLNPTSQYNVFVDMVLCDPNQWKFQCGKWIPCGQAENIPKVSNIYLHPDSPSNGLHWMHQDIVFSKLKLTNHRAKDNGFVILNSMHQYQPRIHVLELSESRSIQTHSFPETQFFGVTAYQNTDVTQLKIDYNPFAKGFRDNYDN
Summary of the method: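 Primer extension turned Universal Agilent oligonucleotide arrays double-stranded. They were incubated with 200 nM protein in PBS (pH 7.5); the protein was a GST-fused Tbr T-box DNA-binding domain expressed in BL21 E. coli at 20 °C and purified on glutathione. Every ungapped 8-mer was scored from the scanned, quantified probe intensities, and the Universal PBM Analysis Suite gave each an enrichment E-score averaged over duplicate arrays.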

Sequence	PBM E-score of 8-mer
AGGAACAT	-0.253 ± 0.019
CTCAGCTA	0.152 ± 0.046
AGAAACTA	-0.0789 ± 0.016
GATCAATA	0.0446 ± 0.036
CGTCCACG	0.0261 ± 0.03
CAAGTAGC	0.154 ± 0.0094
ATAATTCG	-0.0529 ± 0.0063
CGGGCTAC	-0.293 ± 0.11
AGCTTTTA	-0.024 ± 0.12
CTAACTGA	-0.0567 ± 0.055
ACCATGGA	-0.128 ± 0.037
GCGTGGAC	0.106 ± 0.064
CGTGTCTA	0.135 ± 0.05
GCGACGCA	0.0499 ± 0.064
TGTACTAA	-0.0604 ± 0.086
ACGCGAAC	0.276 ± 0.003
CGAGATAC	-0.0218 ± 0.054
GAAATACA	0.0816 ± 0.0046
GTGGTCAA	0.0319 ± 0.018
AAGAAGAG	-0.304 ± 0.076
CTCTGGGA	0.00265 ± 0.049
AGTCCACC	-0.2808 ± 7.1e-06

Sequence	PBM E-score of 8-mer
AGTGGGCA	-0.17 ± 0.035
ATTACCAG	-0.131 ± 0.019
ACATCTCA	0.0408 ± 0.0016
TTCTAGAA	-0.0508 ± 0.067
ACAACTGG	0.168 ± 0.023
ACGGGTCC	-0.0823 ± 0.013
ATAAGACG	-0.05511 ± 0.00039
ACCGCGCG	0.147 ± 0.073
TATCCTGA	-0.209 ± 0.064
GATATCCA	0.0554 ± 0.047
ATCAAAAA	-0.192 ± 0.085
CGTGACTC	0.13 ± 0.042
CGTCACAC	0.43 ± 0.011
CCCTCCAC	-0.0145 ± 0.018
CAGCAGGG	-0.189 ± 0.0067
AACATTAG	0.0046 ± 0.0078
TACAAAAA	-0.168 ± 0.0046
GCACAGGC	-0.108 ± 0.0069
CAGACGGC	-0.105 ± 0.055
CGGGCCGC	-0.2 ± 0.042
AGCAGGCG	-0.00857 ± 0.028
GACGTTGA	-0.0364 ± 0.041

Sequence	PBM E-score of 8-mer
CGTTTCAG	-0.0207 ± 0.028
AGCATGAG	-0.0765 ± 0.057
CATTTACC	-0.0174 ± 0.1
CACAGTCA	0.186 ± 0.015
ACGTACCC	-0.0341 ± 0.018
AATATGTG	0.215 ± 0.065
CGTCAAAG	0.228 ± 0.028
CCTTATAA	-0.146 ± 0.028
TCAGCGGA	-0.161 ± 0.074
GTGTGGGA	0.387 ± 0.038
CATTCATC	-0.0954 ± 0.032
CGAAAACG	0.0298 ± 0.05
CGGATGGA	-0.235 ± 0.07
GCCTTATA	-0.0978 ± 0.007
AATGATCT	-0.0474 ± 0.036
CCAAAAGC	-0.124 ± 0.062
CAGGCATC	-0.256 ± 0.098
AGCATACC	-0.12 ± 0.0049
AGGATTAT	-0.0469 ± 0.026
ACAACTCG	0.288 ± 0.0067
ATCGAACC	-0.25 ± 0.025
ACAGTACC	-0.0527 ± 0.046

Sequence	PBM E-score of 8-mer
ACTTTCGC	0.328 ± 0.038
AACCAGGT	0.0996 ± 0.0088
AGGGCCGC	-0.145 ± 0.028
GAAGTTCA	-0.112 ± 0.02
AACCGCGC	0.0168 ± 0.098
AGGTGGAG	0.158 ± 0.025
CGATGCGA	0.187 ± 0.025
GAAACAAA	-0.186 ± 0.032
CTAGCTAG	0.0179 ± 0.0045
AGACGACC	-0.0246 ± 0.039
AAAGAAAG	-0.17 ± 0.0099
AGCGACCT	-0.0731 ± 0.0067
GCTAGTCC	-0.0719 ± 0.0034
AATTCTCA	0.265 ± 0.042
AATAGCAT	-0.0159 ± 0.004
AGCTCTGA	-0.163 ± 0.0077
ATCGTGGC	0.0387 ± 0.04
GGGGATTA	-0.0282 ± 0.03
TGCAAAAA	0.0559 ± 0.2
ATTTCTCG	0.0339 ± 0.025
